In PubChem BioAssay AID1347073 (National Center for Advancing Translational Sciences (NCATS), 2019):
Among all 45,000 compounds or so, about 200 (0.44%) were called active. Another 7% or so got no clear call; they are omitted. Calls come from the whole dose curve; as a rule, active = well fitted activation curve with a large enough effect; inconclusive = small, poorly fitted or top-dose-only effect; inactive = no such curve, though single readings can be large or run the other way. This is one part of the list.
Potency is the fitted concentration of half-maximal effect.

Assay: qHTS of TDP-43 Inhibitors: NCGC Sytravon Library Screen; note: nearly all actives have a fitted effect of over 55% in size; for growth rescue (activation): 0% is about no effect
Settings: yeast TDP-43 toxicity rescue, BacTiter-Glo growth, 24 h; series mostly up to 46.1 µM; growth rescue (activation): at the top concentration
How it was run: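 TDP-43-expressing yeast, pregrown in raffinose, seeded at OD600 0.02 in galactose medium with compound for 24 hr at 30 deg C. Growth read by BacTiter-Glo luminescence, so rescue of toxicity appears as activation.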
For CC(C)c1ccc(/C=C/C(=O)NC2CCCCC2)cc1, the “growth rescue (activation)” value was inactive: 3.31%. With CCN(CC)CCN1C(=O)C(O)=C(C(C)=O)C1c1ccccc1[N+](=O)[O-] (stereo not drawn) the “growth rescue (activation)” value was inactive: 14.7%. For Cc1cc(C)cc(N(C(=O)c2csnn2)C(C(=O)NC(C)(C)C)c2cccnc2)c1 (stereo not drawn), the “growth rescue (activation)” value was inactive: 18.8%. With N#Cc1c(-c2cccc(Cl)c2)[nH]c(=S)[nH]c1=O the “growth rescue (activation)” value was inactive: 4.44%. In the case of CC(C)(C)CN1CCNC(=O)C1CC(=O)NCCc1ccccc1F (stereo not drawn), the “growth rescue (activation)” value was inactive: -1.12%. For O=C1c2ccccc2NC2(CCCC2)N1NS(=O)(=O)c1ccccc1, the “growth rescue (activation)” value was inactive: -1.24%. With COc1cc(NC(=O)COC(=O)CNS(=O)(=O)c2ccc(F)c(F)c2F)cc(OC)c1 the “growth rescue (activation)” value was inactive: -0.0696%. For Cc1cc(O)c(C(=O)/C=C/c2ccccc2Br)c(=O)o1, the “growth rescue (activation)” value was inactive: 5.13%. With Cc1ccc(S(=O)(=O)CC(O)COc2ccccc2C#N)cc1 (stereo not drawn) the “growth rescue (activation)” value was inactive: 0.937%. With COc1ccc(-c2cc(C(=O)Nc3cccnc3Cl)no2)cc1 the “growth rescue (activation)” value was inactive: 9.52%. With COc1ccccc1N1C(=O)C2C(C(=O)c3ccccc3)=NN(c3ccc(C)cc3)C2C1=O (stereo not drawn) the “growth rescue (activation)” value was inactive: 3.8%. In the case of CCCCCCn1nc(C(=O)N(CCCC)c2c(N)n(CCC)c(=O)[nH]c2=O)c2ccccc2c1=O, the “growth rescue (activation)” value was inactive: -3.74%. With CC1=C(C#N)c2nc(N)c(C#N)c(C)c2/C1=C\c1ccc(OCC(=O)O)c(Cl)c1 the “growth rescue (activation)” value was inactive: -7.18%. With O=C(NN1CCOCC1)c1ccccc1NS(=O)(=O)c1ccc(F)cc1F the “growth rescue (activation)” value was inactive: 13%. For CC(C)(C)c1cc(NC(=O)CSc2nncs2)n(-c2ccccc2)n1, the “growth rescue (activation)” value was inactive: 7%. In the case of CCCCc1nc2ccccc2c(=O)n1NC(=O)c1c(O)c2cccc3c2n(c1=O)CC3, the “growth rescue (activation)” value was inactive: 14.9%. In the case of S=C(c1ccc(-c2cc(Cl)ccc2Cl)o1)N1CCCCC1, the “growth rescue (activation)” value was inactive: -3.34%. In the case of NC(=O)NC(=O)COC(=O)c1ccc(OC(F)F)cc1, the “growth rescue (activation)” value was inactive: 4.34%. For NC(=O)C1CCN(C(=O)CN(c2cccc(Cl)c2)S(=O)(=O)c2ccccc2)CC1, the “growth rescue (activation)” value was inactive: 7.79%. In the case of COc1cccc2cc(-c3nnc(SCC(=O)Nc4ccc(NC(C)=O)cc4)n3C)oc12, the “growth rescue (activation)” value was inactive: 12.6%. In the case of O=C(COC(=O)c1ccc(Br)cc1)NCCc1ccccc1, the “growth rescue (activation)” value was inactive: 10.2%. In the case of CC(C)(C)OC(=O)N1CCCC1C(=O)NCCc1ccccc1 (stereo not drawn), the “growth rescue (activation)” value was inactive: 5.49%. For COCCn1c(-c2ccc(C#N)cc2)nc2c1c(=O)[nH]c(=O)n2Cc1ccccc1, the “growth rescue (activation)” value was inactive: 11.2%. For Cc1ccc(Nc2ccc(S(=O)(=O)N3CCOCC3)cc2[N+](=O)[O-])cc1C, the “growth rescue (activation)” value was inactive: 14.1%. With Cc1ccc(S(=O)(=O)NC(=O)Nc2cc(C)on2)cc1 the “growth rescue (activation)” value was inactive: -13.3%. In the case of Cc1cc(C)n(CC(O)COc2ccc(Cl)cc2Cl)n1 (stereo not drawn), the “growth rescue (activation)” value was inactive: 21.9%. In the case of COc1ccc(/C=C(/C#N)C(=O)Nc2ccccc2C)cc1C(=O)O, the “growth rescue (activation)” value was inactive: 7.84%. With CNC(=S)NNC(=O)c1sccc1C the “growth rescue (activation)” value was inactive: 12.7%. With CC(NC(=O)c1ccc(Br)o1)c1ccc(-n2ccnc2)cc1 (stereo not drawn) the “growth rescue (activation)” value was inactive: 10.7%. For O=C(Nc1ccccc1Cl)c1cc[n+](Cc2ccc([N+](=O)[O-])cc2)cc1, the “growth rescue (activation)” value was inactive: -1.58%. In the case of COc1ccccc1N(CC(=O)NC(C)C)S(=O)(=O)c1cccs1, the “growth rescue (activation)” value was inactive: -10.6%. With COc1cccc(CNC(=O)C2CCN(C(=O)c3sccc3-n3cccc3)CC2)c1 the “growth rescue (activation)” value was inactive: -2.84%. With Cc1ccc(NC(=O)COC(=O)c2ccc(Cl)cc2)cc1S(=O)(=O)N(C)C the “growth rescue (activation)” value was inactive: 2.61%. With COc1cc(C)ccc1OCCCOc1c(Cl)cccc1Cl the “growth rescue (activation)” value was inactive: 13.8%. In the case of CN(C)c1ccc(-c2ccnc3c2CC(C)(C(=O)Nc2cccc(N(C)C)c2)O3)cc1 (stereo not drawn), the “growth rescue (activation)” value was inactive: -3.92%. With COc1ccc(CN(C(=O)c2ccco2)c2ccc(C)c(C)c2)cc1 the “growth rescue (activation)” value was inactive: 25.6%. In the case of CCCCOC(=O)C1[C@H]2C(=O)N(c3ccccc3CC)C[C@]23C=C[C@H]1O3 (stereo partly drawn), the “growth rescue (activation)” value was inactive: 3.29%. In the case of O=C(C[n+]1ccc2ccccc2c1)c1ccccc1, the “growth rescue (activation)” value was inactive: 27.1%. In the case of CCC(Oc1ccccc1)C(=O)Nc1ccccn1 (stereo not drawn), the “growth rescue (activation)” value was inactive: 15.2%. For N#C/C(=C(/O)COc1ccc(Br)cc1)c1nnc2n1CCCCC2, the “growth rescue (activation)” value was inactive: 6.94%. In the case of Nc1ccccc1C(=O)N=Nc1[nH]c(N)c2ccccc12, the “growth rescue (activation)” value was inactive: -0.221%. In the case of CC(Oc1ccc(Br)cc1)C(=O)NCc1ccccn1 (stereo not drawn), the “growth rescue (activation)” value was inactive: -6.45%. In the case of N#Cc1ccccc1NC(=O)c1cccc(COc2ccc(Cl)cc2Cl)c1, the “growth rescue (activation)” value was inactive: 1.85%. For Cc1csc(NC(=O)c2ccc(COc3ccccc3)o2)n1, the Potency was active: 17.8 µM. In the case of N#Cc1ccc(CSc2nc(N)cc(N)n2)cc1, the “growth rescue (activation)” value was inactive: 3.44%. For Cc1ccccc1Nc1nnc(SCC(=O)NCc2cccs2)s1, the “growth rescue (activation)” value was inactive: 24.8%. In the case of CC(C)C(=O)N1CCN(c2ccccc2NC(=S)NC(=O)/C=C/c2ccco2)CC1, the “growth rescue (activation)” value was inactive: 12.5%. In the case of Cc1c(N)cc(N)cc1C(=O)O, the “growth rescue (activation)” value was inactive: -4.13%. For CCOC(=O)c1sc(Nc2ccc(F)cc2)nc1C, the “growth rescue (activation)” value was inactive: 18.9%. In the case of O=C(O)C(Cc1ccccc1)N=Cc1c(O)c2ccccc2oc1=O (stereo not drawn), the “growth rescue (activation)” value was inactive: -9.56%. In the case of Cc1cccc(Nc2nc(NCc3ccco3)c3ccccc3n2)c1, the “growth rescue (activation)” value was inactive: 2.5%. For Oc1ccc2ccccc2c1C=NC1CCCCC1, the “growth rescue (activation)” value was inactive: -38.8%. In the case of CCc1nc2ccc(C(=O)N(C)Cc3ccco3)cn2c1N(C)C(=O)Cc1ccccc1, the “growth rescue (activation)” value was inactive: 4.21%. In the case of CCOP(=O)(NC12CC3CC(CC(C3)C1)C2)NC12CC3CC(CC(C3)C1)C2, the “growth rescue (activation)” value was inactive: 8.03%. In the case of COc1cccc(N=C2SC(C(=O)Nc3cccc(Cl)c3)CC(=O)N2C)c1 (stereo not drawn), the “growth rescue (activation)” value was inactive: 11.4%. In the case of CCC1(c2ccc(F)cc2)NC(=O)N(CC(=O)Nc2ccc(C(N)=O)cc2)C1=O (stereo not drawn), the “growth rescue (activation)” value was inactive: 4.7%. For CC1(C)C(=O)Nc2ccccc2N1C(=O)COc1cccnc1[N+](=O)[O-], the “growth rescue (activation)” value was inactive: -5.78%. For Cc1nc(-c2ccccc2)sc1-c1nc(-c2ccncc2)ncc1S(=O)(=O)c1ccccc1, the “growth rescue (activation)” value was inactive: 16.6%. With CC(=O)c1ccc(-c2cnc3c(NC=O)cc(-c4cccc(C(=O)N(C)C)c4)cn23)cc1 the “growth rescue (activation)” value was inactive: 10.9%. With N#Cc1ccc(OCC(=O)OCC(=O)c2ccccc2)cc1 the “growth rescue (activation)” value was inactive: 25.8%. With CC(C)[C@H](NS(=O)(=O)c1ccc2c(c1)OCCO2)C(=O)OCC(=O)Nc1cccc(Cl)c1Cl the “growth rescue (activation)” value was inactive: 9.94%. For COc1cc(C(=O)NC(CCSC)C(=O)OCc2cc([N+](=O)[O-])cc3c2OCOC3)cc(OC)c1OC (stereo not drawn), the “growth rescue (activation)” value was inactive: 10.3%. For COc1cccc(C(=O)NNC(=O)C2CCCO2)c1 (stereo not drawn), the “growth rescue (activation)” value was inactive: -11.8%. For CC(=NNC(=O)c1ccc(NS(=O)(=O)c2ccc(Br)cc2)cc1)c1cccnc1, the “growth rescue (activation)” value was inactive: 14.9%. For O=C(/C=C/c1ccc([N+](=O)[O-])cc1)OCC(=O)N1CCCC1, the “growth rescue (activation)” value was inactive: -7.81%. In the case of O=C1ON=C(c2ccc([N+](=O)[O-])cc2)/C1=C/c1ccccc1O, the “growth rescue (activation)” value was inactive: 20.6%. With Cc1ccnc(NS(=O)(=O)c2cnc(Cl)c(Br)c2)c1 the “growth rescue (activation)” value was inactive: -27.1%. With CC(=O)Nc1ccc(NC(=O)c2nc(-c3ccccc3)oc2C)cc1 the “growth rescue (activation)” value was inactive: 0.657%.
